Two molecules from patent US20260193372A1 (Hoffmann-La Roche, published 2026) can be followed below.

Residue numbers refer to the chain shown, from its start. Names and notes keep the numbering of the source.

Experiment [1] has as its target T1, plasma purified C3b (Complement Technology), biotinylated at cysteine 1010 with Maleimide-PEG3-biotin (human, UniProt P01024 23-667; P01024 partial chain, limits assumed, cysteine 1010 biotinylated (Maleimide-PEG3-biotin)).
T1 construct: Loaded on streptavidin BLI sensors; also called Complement C3 beta chain (C3b); C3 fragment
T1 sequence (P01024 23-667 limits assumed, chain 1 of 2): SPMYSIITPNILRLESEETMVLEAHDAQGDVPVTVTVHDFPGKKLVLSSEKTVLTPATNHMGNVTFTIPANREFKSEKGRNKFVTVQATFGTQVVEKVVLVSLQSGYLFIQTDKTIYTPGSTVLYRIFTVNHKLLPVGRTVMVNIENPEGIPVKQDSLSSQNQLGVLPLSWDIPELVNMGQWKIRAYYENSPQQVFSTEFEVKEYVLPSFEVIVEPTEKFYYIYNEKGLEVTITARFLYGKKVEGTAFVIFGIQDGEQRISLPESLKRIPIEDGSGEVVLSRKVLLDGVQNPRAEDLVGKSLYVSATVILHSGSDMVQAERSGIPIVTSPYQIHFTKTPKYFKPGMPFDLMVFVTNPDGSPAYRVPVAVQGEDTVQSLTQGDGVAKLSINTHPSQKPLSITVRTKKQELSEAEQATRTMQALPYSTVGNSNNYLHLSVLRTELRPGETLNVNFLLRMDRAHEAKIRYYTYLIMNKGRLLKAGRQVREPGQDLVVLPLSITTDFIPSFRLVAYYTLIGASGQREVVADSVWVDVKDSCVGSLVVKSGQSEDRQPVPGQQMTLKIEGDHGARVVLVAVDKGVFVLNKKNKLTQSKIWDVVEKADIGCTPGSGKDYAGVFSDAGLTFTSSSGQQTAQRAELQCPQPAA
T1 sequence (P01024 749-1663 limits assumed, chain 2 of 2): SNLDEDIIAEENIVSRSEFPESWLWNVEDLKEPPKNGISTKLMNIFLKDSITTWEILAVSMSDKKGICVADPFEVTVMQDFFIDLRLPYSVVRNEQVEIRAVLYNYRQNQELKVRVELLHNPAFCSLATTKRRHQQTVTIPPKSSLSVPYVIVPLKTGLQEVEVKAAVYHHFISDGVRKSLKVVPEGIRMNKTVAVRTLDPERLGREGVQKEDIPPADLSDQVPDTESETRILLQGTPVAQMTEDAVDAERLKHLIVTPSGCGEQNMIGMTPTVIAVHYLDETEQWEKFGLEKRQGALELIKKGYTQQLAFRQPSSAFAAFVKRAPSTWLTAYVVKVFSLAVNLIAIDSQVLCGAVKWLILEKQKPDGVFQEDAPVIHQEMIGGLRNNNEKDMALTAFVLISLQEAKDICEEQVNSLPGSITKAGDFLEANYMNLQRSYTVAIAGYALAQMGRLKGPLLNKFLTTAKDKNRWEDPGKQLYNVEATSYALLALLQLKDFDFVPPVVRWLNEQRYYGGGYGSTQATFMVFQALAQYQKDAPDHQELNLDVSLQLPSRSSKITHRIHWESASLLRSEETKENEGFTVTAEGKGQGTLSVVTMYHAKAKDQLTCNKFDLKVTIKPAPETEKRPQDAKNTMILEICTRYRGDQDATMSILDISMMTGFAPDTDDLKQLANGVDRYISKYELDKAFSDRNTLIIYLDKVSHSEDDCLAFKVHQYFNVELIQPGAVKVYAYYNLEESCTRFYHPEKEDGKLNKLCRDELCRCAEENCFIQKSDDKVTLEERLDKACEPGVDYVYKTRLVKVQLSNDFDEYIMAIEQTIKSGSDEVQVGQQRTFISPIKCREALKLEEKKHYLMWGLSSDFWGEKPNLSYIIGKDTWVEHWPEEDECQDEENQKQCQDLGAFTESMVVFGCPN
Kind of experiment: BLI, biotinylated C3b on streptavidin sensor, FB with factor D, Ni2+ buffer, dissociation of C3bBb, single exponential fit. The source says:
Correction of the BLI trace was identical to the experiment in presence of magnesium. Different from the Mg2+ containing C3bBb complexes, only one species was detected during dissociation and a single exponential decay (A*exp(((−1)*B)*x)) was used for analysis.

In experiment [2] the target is T1, plasma purified C3b (Complement …). The experiment is described as follows: BLI, biotinylated C3b on streptavidin sensor, FB with factor D, Mg2+ buffer, dissociation of C3bBb, double exponential fit. The protocol:
To analyze stability of the C3bBb complexes having the different Bb subunits, C3b cysteine 1010 was biotinylated by incubating plasma purified C3b (Complement Technology) overnight at 4° C. in presence of 5 molar excess Maleimide-PEG3-biotin (Thermo Fisher Scientific) followed by purification on a Zeba spin column 40K (Thermo Fisher Scientific). This material was used to load streptavidin functionalized BLI sensors (SA sensors; Fortebio) in an Octet RED 384 device (Fortebio) at high density (5 nm BLI signal). C3bBb was assembled by exposing the C3b loaded sensors to different recombinant factor B variants (i.e. wild type SEQ ID NO: 1; D279G variant of SEQ ID NO: 2; D279G K350N M458I triple variant of SEQ ID NO: 3) in presence of 54 nM plasma purified factor D (Complement Technology) in HBS-T (Mg) buffer (150 mM NaCl, 10 mM HEPES, 1 mM MgCl2, 0.005% Tween20. pH 7.4) at 22° C. […]
After subtraction of the signal recorded from parallel reference sensors omitting the C3b loading step and subtraction of a control sensor omitting factor B and factor D, data of the dissociation phase was fitted to the double exponential ((A*exp(((−1)*B)*x)))+(C*exp(((−1)*D)*x)) using XLfit (IDBS software), allowing for heterogeneity in the assembled convertase population. […]
(In general: Biolayer interferometry detects binding as a change in optical thickness at a sensor tip.)

B1: recombinant human Factor B wt (FB) with His Tag and Precission site (enzyme)
chain: KIVLDPSGSMNIYLVLDGSDSIGASNFTGAKKCLVNLIEKVASYGVKPRYGLVTYATYPKIWVKVSEADSSNADWVTKQLNEINYEDHKLKSGTNTKKALQAVYSMMSWPDDVPPEGWNRTRHVIILMTDGLHNMGGDPITVIDEIRDLLYIGKDRKNPREDYLDVYVFGVGPLVNQVNINALASKKDNEQHVFKVKDMENLEDVFYQMIDESQSLSLCGMVWEHRKGTDYHKQPWQAKISVIRPSKGHESCMGAVVSEYFVLTAAHCFTVDDKEHSIKVSVGGEKRDLEIEVVLFHPNYNINGKKEAGIPEFYDYDVALIKLKNKLKYGQTIRPICLPCTEGTTRALRLPPTTTCQQQKEELLPAQDIKALFVSEEEKKLTRKEVYIKNGDKKGSCERDAQYAPGYDKVKDISEVVTPRFLCTGGVSPYADPNTCRGDSGGPLIVHKRSRFIQVGVISWGVVDVCKNQKRQKQVPAHARDFHINLFQVLPWLKEKLQDEDLGFL
notes: also called wild type Bb
On to B1, for which, in experiment [1], the “prevalence of main species” value was found to be 100% and the “t ½” value was 29 min.

B2: recombinant human FB with D279G with His Tag and Precission site (enzyme)
chain: B1 chain with D20G
notes: Cleaved by factor D in the assay; the Bb subunit stays on C3b; also called FB (D279G); single mutated Bb D279G
As for B2, in experiment [1], the “prevalence of main species” value was 100% and the “t ½” value was 198 min. Also, in experiment [2], the “prevalence of main species” value amounted to 97% and the “t ½” value turned out to be 63 min.
